# ± gives the standard deviation of the averaged measurements. The full ranking holds about 1,900 compounds; the median of “CD40L-induced NF-kB luciferase activity, plate-corrected, relative to DMSO (0) and IKK inhibitor VII (-100) controls” is about 0.032, and the lowest 2% start at about -26. This is one part of the list.
# System: BL2-NFkB-Luc
# Experiment: CD40L-induced NF-kB luciferase activity, plate-corrected, relative to DMSO (0) and IKK inhibitor VII (-100) controls (% normalized activity); higher = more NF-kB reporter activity (less inhibition)
# Details: 9.4 µM; stimulus: tCD40L 64 ng/ml; 4.5 h
# Procedure: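 BL2 B cells with a stable NF-kB response-element luciferase reporter (BL2-NFkB-Luc), 384-well. Cells were pre-incubated with compound at 9.4 uM for 1 h at 37 C, then stimulated with 64 ng/ml trimerized CD40L for 4.5 h; luciferase was read with Steady-Glo. Signal was normalised per plate in Genedata (median DMSO neutral control = 0, median IKK inhibitor VII at 50 uM = -100) with Assay Median plate-pattern correction; duplicate plates.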
row,SMILES,CD40L-induced NF-kB luciferase activity
1,COc1cccc2c(=O)c(C/C=C(/C)Cl)c(C)[nH]c12,10.1 ± 0.58
2,O=C(Nc1ncc2c(n1)CC(c1ccco1)CC2=O)c1ccco1 (stereo not given),2.39 ± 2.4
3,COc1ccc(-c2[nH]ncc2C=O)cc1OC,0.26 ± 3.5
4,COC(=O)c1[nH]c2ccc(C)cc2c1NC(=O)CN1CCc2cc(OC)c(OC)cc2C1,-5.22 ± 6.4
5,COc1ccc(-c2noc(-c3ccccc3-c3ccccc3)n2)cc1,3.72 ± 0.69
6,Cc1ccc(-n2cc(CNCCN3CCOC3=O)c(-c3ccc(F)cc3)n2)cc1,3.73 ± 12
7,COc1ccc(C(=O)C2CCCCC2=O)cc1 (stereo not given),8.73 ± 2.5
8,CCn1c(SCC(=O)c2ccccc2)nc2ccccc2c1=O,2.63 ± 4
9,Cc1ccc(C(=O)Nc2ccccc2C(=O)NC(C(=O)O)C(C)C)cc1 (stereo not given),34.1 ± 2
10,O=C(CCCn1c(=O)oc2ccccc21)N1CCN(c2ccc(F)cc2)CC1,-1.53 ± 2.2
11,Cn1c2[n+](c3ccc(Cl)cc3c1=O)Cc1ccccc1-2,3.78 ± 1.5
12,O=C(NCCC(c1ccccc1)c1ccco1)c1cccs1 (stereo not given),24.9 ± 2.2
13,CC(=O)Oc1cc2oc(=O)cc(C)c2cc1OC(C)=O,-2.87 ± 1.3
14,CC(=O)O[C@H]1C(=O)[C@@]2(C)[C@H]([C@H](OC(=O)c3ccccc3)[C@]3(O)C[C@H](OC(=O)[C@H](O)C(NC(=O)c4ccccc4)c4ccccc4)C(C)=C1C3(C)C)[C@]1(OC(C)=O)CO[C@@H]1C[C@@H]2O (stereo not given in full),-33.4 ± 1.3
15,COc1ccc(CNCCC2(C(C)C)CCOC(C)(C)C2)cc1 (stereo not given),1.86 ± 0.35
16,CC1Cc2ccccc2N1NC(=O)c1ccc(Cl)c(S(N)(=O)=O)c1 (stereo not given),5.58 ± 4.4
17,COc1ccc(C2=C(CN(C)C)C(c3ccccc3)c3ccccc3O2)cc1 (stereo not given),30.6 ± 5.3
18,CC(C)(C)[C@]1(O)CCN2C[C@H]3c4ccccc4CCc4cccc(c43)[C@@H]2C1,0.507 ± 1.8
19,CCOC(=O)c1cccc(C(=O)OCC)n1,-2.95 ± 2.1
20,O=C(Cc1ccccc1[N+](=O)[O-])NCCCN1CCOCC1,-0.1 ± 0.66
21,COc1ccc(C2CC(c3c(O)cc(C)oc3=O)=NCCS2)c(OC)c1 (stereo not given),24 ± 8
22,COc1cc(Cl)cc2c1Sc1ccccc1/C2=C/CCN(C)C,2.69 ± 3.6

row,SMILES,CD40L-induced NF-kB luciferase activity
1,O=C(COc1ccccc1)Nc1ccc2c(c1)C(=O)N(CC1CCCO1)C2=O (stereo not given),-2.32 ± 4.8
2,O=C1C(Cc2c[nH]c3ccccc23)NC(=S)N1Cc1ccccc1 (stereo not given),-6.07 ± 2
3,CCOc1ccccc1OCCOc1ccc(F)cc1,-0.323 ± 0.64
4,CC[C@H]1OC(=O)[C@H](C)[C@@H](O[C@H]2C[C@@](C)(OC)[C@@H](O)[C@H](C)O2)[C@H](C)[C@@H](O[C@@H]2O[C@H](C)C[C@H](N(C)C)[C@H]2O)[C@](C)(O)C[C@@H](C)[C@@H]2N[C@@H](COCCOC)O[C@H]([C@H]2C)[C@]1(C)O,-2.65 ± 8
5,COc1ccc2c(CC(=O)NCC3CCC(C(=O)O)CC3)cc(=O)oc2c1 (stereo not given),-6.39 ± 0.21
6,O=C1CC2(CCCC2)CC(=O)N1CCCCN1CCN(c2ncccn2)CC1,-7.3 ± 4.7
7,CC(C)(C)n1c(=O)[nH]c2c(c1=O)CCC2,4.79 ± 6.9
8,CCC(C(=O)OCCN(CC)CC)c1ccccc1 (stereo not given),1.71 ± 4.8
9,COc1ccc(N2C(=O)[C@@H]3Cc4ccccc4CN3C2=O)cc1,3.23 ± 6.2
10,CN(C)c1ccc(CNCCC(Cc2ccccc2)c2ccco2)cc1 (stereo not given),-1.81 ± 1.7
11,CCS(=O)(=O)Nc1cc(OC)c(OC)cc1Cc1nccc2cc(OC)c(OC)cc12,1.88 ± 2.5
12,CCCN1CCC(NC(=O)Nc2ccc(Br)cc2)CC1,-5.69 ± 4.5
13,Fc1ccc(-n2cc(CNCCc3ccccn3)c(-c3ccccc3Cl)n2)cc1,-5.15 ± 9.2
14,CC(=O)Nc1ccc(S(=O)(=O)c2ccc(N)cc2)cc1,6.46 ± 2.4
15,COc1cccc(=O)c2c(C)n(CC(=O)c3ccccc3)c(C)c12,0.818 ± 0.62
16,CCn1nc(C(=O)O)c(=O)c2cc3c(cc21)OCO3,-0.227 ± 0.73
17,CC(C(=O)O)c1ccc(N2Cc3ccccc3C2=O)cc1 (stereo not given),-43.6 ± 2.8
18,Cc1ccc(Cl)c(Nc2ccccc2C(=O)O)c1Cl,-0.677 ± 5.4
19,CON=C(C(=O)N[C@@H]1C(=O)N2C(C(=O)O)=C(COC(C)=O)CS[C@H]12)c1csc(N)n1,-0.342 ± 3.9
20,COc1ccc2[nH]c3c(=O)n(N=C[C@H]4C(C)C=C(C)CC4C)c(=O)[nH]c3c2c1 (stereo not given in full),-1.93 ± 0.38
21,CCN1CCN(c2cc3c(cc2F)c(=O)c(C(=O)O)cn3C2CC2)CC1,0.896 ± 7.7
22,Cc1nnc(NS(=O)(=O)c2ccc(N)cc2)s1,-4.9 ± 1.5

row,SMILES,CD40L-induced NF-kB luciferase activity
1,CC1CC(OC(=O)C(O)c2ccccc2)CC(C)(C)N1C (stereo not given),4.2 ± 2
2,CC(=O)OCC(OC(C)=O)C(OC(C)=O)C(OC(C)=O)C(=O)Nc1cccc(C)c1 (stereo not given),2.36 ± 0.76
3,O=C(NCCc1c[nH]c2ccccc12)c1cccnc1,12.2 ± 0.3
4,CCCOc1ccc(-c2cc(C(=O)NCC3CCCO3)c3ccccc3n2)cc1 (stereo not given),24.6 ± 4.1
5,CC1(C)O[C@@H]2C[C@H]3[C@@H]4CCC5=CC(=O)C=C[C@]5(C)[C@@]4(F)[C@@H](O)C[C@]3(C)[C@]2(C(=O)CO)O1,-31.3 ± 5.1
6,COc1ccc(/C=C\c2nc(=O)c3ccccc3o2)cc1,-4.35 ± 5.1
7,CC(CCc1oc2ccc(Cl)cc2c1-c1ccc(C)o1)=NO,4.28 ± 0.44
8,O=C(O)CCCc1ccccc1,3.79 ± 3.9
9,O=C(CCC1CCCN(C(=O)c2ccsc2)C1)NCc1ccc(F)c(F)c1 (stereo not given),6.26 ± 6.2
10,Cc1cccc(C(=O)c2cccc(C)c2)c1,4.75 ± 5.7
11,N#C/C(=C/c1ccccc1)C(=O)NCc1ccccc1,-1.8 ± 1.4
12,COc1cc(C2CC(=O)NC3=C2C(=O)CC(C)(C)C3)ccc1O (stereo not given),7.59 ± 2.5
13,COc1cc(COc2ccc3c(C)c(Cc4ccccc4)c(=O)oc3c2)cc(OC)c1OC,-0.264 ± 1.1
14,O=C(O)[C@H](Cc1ccccc1)NC(=O)N1CCC(Cc2ccccc2)CC1,1.1 ± 0.14
15,COc1ccc(CC(=O)NCC2(c3ccc(OC)c(OC)c3)CCOCC2)cc1,0.938 ± 3.2
16,CC(C)(C)NC[C@H](O)COc1nsnc1N1CCOCC1,3.57 ± 6.9
17,C[C@]12CCC(=O)C=C1CC[C@@H]1[C@@H]2[C@@H](O)C[C@@]2(C)[C@H]1CC[C@]2(O)C(=O)COC(=O)CCC(=O)O,-23.2 ± 7.1
18,Fc1cccc(Cc2noc(CN3CCN(c4cnccn4)CC3)n2)c1,2.25 ± 3.4
19,COc1ccc2c(=O)c(-c3cnn(-c4ccccc4)c3)c(C)oc2c1,1.2 ± 0.96
20,Cn1c(Oc2ccc3c(c2)OCO3)nc2c1c(=O)n(Cc1ccccc1)c(=O)n2C,-1.64 ± 0.6
21,CCOc1ccc(C(=O)Nc2ccc(N3CCN(C(C)=O)CC3)cc2)cc1[N+](=O)[O-],-1.43 ± 3

# — the supplement of paper PMC3656093
